The campaign covered roughly 350,000 compounds. About 260 (0.074%) were called active. The shares of active, inactive and inconclusive entries below differ from those in the screen. Calls follow the shape of the dose curve; as a rule, active = well fitted inhibition curve with a large enough effect; inconclusive = small, poorly fitted or top-dose-only effect; inactive = no such curve, though single readings can be large or run the other way. A potency beside an inconclusive call is a rough fit, not a confirmed value.
target: Ferritin light chain (Equus caballus) (UniProt P02791); test: qHTS Assay for Identification of Novel General Anesthetics; conditions: apoferritin/1-aminoanthracene competitive binding, fluorescence; activity change, negative = displacement: at 77.5 µM (top of the series); also: nearly all actives have a fitted effect of over 20% in size
UniProt P02791, sequence (P02791 whole entry, looked up): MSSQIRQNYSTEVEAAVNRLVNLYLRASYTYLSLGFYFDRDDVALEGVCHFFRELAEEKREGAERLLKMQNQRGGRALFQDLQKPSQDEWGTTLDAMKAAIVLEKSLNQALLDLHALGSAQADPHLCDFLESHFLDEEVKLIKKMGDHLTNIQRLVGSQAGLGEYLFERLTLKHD
Procedure, shortened: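 Read-out: endpoint 1-AMA fluorescence, excitation 380 nm and emission 535 nm, after compounds sit 10 min at room temperature with 10 uM horse-spleen apoferritin in 50% saturated 1-AMA/PBS. Values come from four-parameter Hill fits.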
% is scaled to controls: 0 for no effect and ±100 for the full control effect; potency is read from the fitted curve at half-maximal effect; tags tell the direction and shape of the fitted curve.

Row | Compound | Potency | activity change, negative = displacement
1 | CCOc1ccc(-c2nnc3n2N=C(c2ccc(OC)cc2)CS3)cc1 | inconclusive: 8.91 µM [inhibitor, partial curve] | 
2 | O=C(CSc1nnc(CNC(=O)c2ccccc2)n1-c1cccc(Cl)c1)Nc1ccccc1F |  | inactive: 22.6%
3 | COc1ccc(OC)c(N)c1 | inconclusive: 35.5 µM [inhibitor, single point] | 
4 | Cc1cc(C(=O)c2ccc(C(C)(C)C)cc2)c(NC(=O)CCl)s1 | inconclusive: 15.8 µM [inhibitor, partial curve] | 
5 | N#CC1=C(N)N(c2ccccc2)C(c2ccco2)C1(C#N)C#N (centres undefined) |  | inactive: 0.224%
6 | Cc1c(C)n(Cc2ccccc2)c2ccc(C(=O)NC(C)c3ccccc3)cc12 (centres undefined) |  | inactive: 2.4%
7 | Cc1ccc(C(=O)CSC2=C(C#N)C(c3ccco3)C3=C(CC(C)(C)CC3=O)N2)cc1 (centres undefined) |  | inactive: -9.12%
8 | O=C(Nc1cccc(NC(=O)c2ccc3c(c2)OCO3)c1)c1ccccc1 | inconclusive: 15.8 µM [inhibitor, partial curve] | 
9 | Cc1cc(OCCOCCN(C)CCO)cc(C)c1Cl | inconclusive: 25.1 µM [inhibitor, single point] | 
10 | O=C(NC1CC1)c1nc(Cn2cc([N+](=O)[O-])cn2)no1 |  | inactive: -3.49%
11 | CCOC(=O)c1cc(CC)sc1/N=C/c1c(O)ccc2ccccc12 | inconclusive: 39.8 µM [inhibitor, single point] | 
12 | CCN1CCC(N(Cc2ccc3c(c2)OCO3)C(=O)Nc2cc(Cl)ccc2C(=O)OC)CC1 | inconclusive: 3.55 µM [inhibitor, full curve, poor fit] | 
13 | COc1cccc(OCC(O)CN2CCC(Cc3ccccc3)CC2)c1 (centres undefined) |  | inactive: -13.4%
14 | Cc1cc2oc(=O)c(CC(=O)NCCc3ccccc3)c(C)c2c2occ(C(C)(C)C)c12 | inconclusive: 7.08 µM [inhibitor, partial curve] | 
15 | O=C(Nc1c(F)cc(F)cc1Br)c1cc(-c2ccc(O)cc2)on1 | inconclusive: 31.6 µM [inhibitor, partial curve] | 
16 | c1ccc(CSc2ncnc3c2cnn3Cc2ccccc2)cc1 | inconclusive: 25.1 µM [inhibitor, partial curve] | 
17 | O=C(NC(=S)N1CCOCC1)c1ccc([N+](=O)[O-])cc1 |  | inactive: 9.32%
18 | C=C(Cl)COc1ccc2c(CCCC)cc(=O)oc2c1 | inconclusive: 39.8 µM [inhibitor, partial curve] | 
19 | COc1cc(Cl)c(NS(=O)(=O)c2ccc3c(c2)CC(C)N3C(=O)C2CCC2)c(OC)c1 (centres undefined) | inconclusive: 7.08 µM [inhibitor, partial curve] | 
20 | CCOC(=O)n1c(=O)n(Cc2cccc(C)c2)c2ccccc21 | inconclusive: 28.2 µM [inhibitor, partial curve] | 
21 | Nc1c(-c2ccccc2)sc2ccc3ccccc3[n+]12 | inconclusive: 12.6 µM [inhibitor, partial curve] | 
22 | CCN1CCN(Cc2cc(=O)oc3cc4c(cc23)CCC4)CC1 | inconclusive: 31.6 µM [inhibitor, partial curve] | 
23 | O=C(CCn1cnc2onc(-c3ccc(F)cc3)c2c1=O)N1CCN(c2ccc(F)cc2)CC1 | inconclusive: 3.55 µM [inhibitor, single point] | 

Row | Compound | Potency | activity change, negative = displacement
24 | O=C1N(Cc2cccnc2)C[C@@H]2C[C@@H](c3cccc(OCc4ccccc4)c3)N3CCC[C@@]123 |  | inactive: -4.96%
25 | CCCCOc1ccc(C2=NC(c3ccncc3)=Nc3ccc(Br)cc3N2)cc1 | inconclusive: 15.8 µM [inhibitor, partial curve] | 
26 | CC(Sc1ccc2ccccc2n1)C(=O)O (centres undefined) | inactive | 
27 | CC(=O)c1ccc(NC(=O)c2ccc(NC(=O)c3ccco3)cc2)cc1 |  | inactive: -5.55%
28 | CCN(CC)c1ccc(-c2nn3c(-c4n[nH]c5c4CCC5)nnc3s2)cc1 |  | inactive: 312%
29 | CCCCCC(=O)O[C@]1(C(C)=O)CC[C@H]2[C@@H]3CCC4=CC(=O)CC[C@]4(C)[C@H]3CC[C@@]21C | inconclusive: 20 µM [inhibitor, partial curve] | 
30 | COc1ccc(OCC(=O)Nc2ccc(C(=O)OCc3cc(=O)n4nc(C)sc4n3)cc2)cc1 |  | inactive: -11.2%
31 | Cc1ccc(Cn2nc(C)c(NC(=O)c3cc(-c4ccc5c(c4)OCO5)on3)c2C)cc1 | inconclusive: 8.91 µM [inhibitor, partial curve] | 
32 | O=C(CN(c1cccc(C(F)(F)F)c1)S(=O)(=O)c1ccc(Cl)c([N+](=O)[O-])c1)NCc1ccccc1 | inconclusive: 14.1 µM [inhibitor, partial curve, poor fit] | 
33 | CCOC(=O)c1ccc2c(c1)N(Cc1cccc(OC)c1)C(=O)c1ccccc1S2(=O)=O | inconclusive: 22.4 µM [inhibitor, partial curve] | 
34 | C=CCn1c(CCc2cc(C(C)(C)C)c(O)c(C(C)(C)C)c2)n[nH]c1=S | inconclusive: 28.2 µM [inhibitor, partial curve] | 
35 | CCN(Cc1ccncc1)C(=O)c1cc(COc2ccc(C)c(C)c2)on1 | inconclusive: 31.6 µM [inhibitor, partial curve] | 
36 | Cc1ccc(CCNC(=O)CS(=O)Cc2nc(-c3cccs3)oc2C)cc1 (centres undefined) |  | inactive: -10.1%
37 | CC1=C(C(=O)OC2CCCC2)C(c2ccc(F)cc2F)CC(=O)N1 (centres undefined) |  | inactive: -11.4%
38 | COc1cccc(C(C(=O)NC2CCCCC2)N(C(=O)c2ccco2)c2ccccc2OC)c1 (centres undefined) |  | inactive: -23.3%
39 | Cc1ccc(N=Cc2cccc(O)c2O)c(C)c1 | inconclusive: 28.2 µM [inhibitor, partial curve] | 
40 | CC1CCCC/C1=N\Nc1ccc(S(N)(=O)=O)cc1[N+](=O)[O-] (centres undefined) | inconclusive: 35.5 µM [inhibitor, single point] | 
41 | Cn1c(SCCOc2ccccc2Cl)nnc1-c1cccs1 |  | inactive: 2.2%
42 | CCOC(=O)C1=C(N)OC2=C(C(=O)CC(C)(C)C2)C1C1CCCCC1 (centres undefined) | inconclusive: 35.5 µM [inhibitor, partial curve] | 
43 | O=C(CCCCn1c(=O)c2ccccc2n(Cc2ccc(Cl)cc2)c1=O)NCc1ccccc1Cl |  | inactive: 38.6%
44 | O=C(Nc1cccnc1Cl)c1ccc(S(=O)(=O)N2CCCCCC2)cc1 | inconclusive: 31.6 µM [inhibitor, partial curve] | 
45 | CC(=O)N(CC1CCCO1)c1nnc(-c2cnccn2)s1 (centres undefined) | inconclusive: 31.6 µM [inhibitor, partial curve] | 
46 | COc1ccc(C(=O)/C=C/c2ccccc2C(F)(F)F)cc1 | inconclusive: 10 µM [inhibitor, partial curve] | 

Row | Compound | Potency | activity change, negative = displacement
47 | CCN(C(=O)c1ccco1)C1C2CC3CC(C2)CC1C3 (centres undefined) | inconclusive: 50.1 µM [inhibitor, single point] | 
48 | Clc1cccc(Nc2nc(-c3ccncc3)nc3ccccc23)c1 |  | inactive: -3.01%
49 | Nn1c(SCC(=O)N2CCCc3ccccc32)nncc1=O | inconclusive: 25.1 µM [inhibitor, partial curve] | 
50 | Cc1nc(N2CCCC2)c2c(C(=O)Nc3ccc(C)c(Cl)c3)c(C)oc2n1 | inconclusive: 4.47 µM [inhibitor, single point] | 
51 | COc1ccc(C2CC(=O)c3cnc(NC(=O)c4cc(OC)cc(OC)c4)nc3C2)cc1 (centres undefined) | inconclusive: 3.16 µM [inhibitor, partial curve] | 
52 | CC1CCC(NC(=O)Nc2cccs2)CC1 (centres undefined) | inconclusive: 44.7 µM [inhibitor, single point] | 
53 | O=C(CSc1nnc(COc2ccc(Cl)cc2)o1)Nc1ccccc1 |  | inactive: -13.8%
54 | CSc1nc(C)c2c(c1C#N)CCCC2 | inconclusive: 22.4 µM [inhibitor, partial curve] | 
55 | C=CCN(C(=O)CNC(=O)c1ccco1)C(C(=O)NC1CCCCC1)c1ccccc1F (centres undefined) |  | inactive: 0.406%
56 | Cc1cc(Cl)ccc1OCC(=O)N1C(C)CCCC1C (centres undefined) | inconclusive: 31.6 µM [inhibitor, single point] | 
57 | Cc1cccc(C)c1NC(=O)C(=O)c1cn(C)c2ccccc12 | inconclusive: 17.8 µM [inhibitor, partial curve] | 
58 | COc1ccc(-n2c(=O)/c(=C\c3cccs3)s/c2=C(/C#N)C(=O)N2CCN(C)CC2)cc1 |  | inactive: -21.1%
59 | NC(=O)COc1ccc(C23CC4CC(CC(C4)C2)C3)cc1 | inconclusive: 5.62 µM [inhibitor, full curve] | 
60 | COC(=O)c1c(C)oc2ccc(N(C(=O)c3ccncc3)S(=O)(=O)c3cc(C)c(C)cc3C)cc12 | inconclusive: 11.2 µM [inhibitor, partial curve] | 
61 | Cc1ccc(CNc2oc(COc3ccccc3Cl)nc2C#N)cc1 | inconclusive: 14.1 µM [inhibitor, partial curve] | 
62 | Cc1ccc(Nc2nnc(SCC(=O)NCc3ccco3)s2)cc1 | inconclusive: 15.8 µM [inhibitor, partial curve] | 
63 | Cc1cccc(OCC(=O)N/N=C\c2cc3c(cc2[N+](=O)[O-])OCO3)c1C | inconclusive: 12.6 µM [inhibitor, partial curve] | 
64 | O=C(Cn1c(=O)n(Cc2ccco2)c(=O)c2ccc(C(=O)NC3CCCC3)cc21)Nc1ccc(F)cc1 | inconclusive: 10 µM [inhibitor, partial curve] | 
65 | CCOC(=O)CCc1c(C)nc(SCCN2CCCC2)c(C#N)c1C | inconclusive: 31.6 µM [inhibitor, single point] | 
66 | N#C/C(=C\c1ccc(-c2ccccc2C(=O)O)o1)c1nc2ccccc2[nH]1 | inactive | 
67 | Cc1ccc(OCc2nc(C#N)c(NCCCn3ccnc3)o2)cc1 | inconclusive: 39.8 µM [inhibitor, partial curve] | 
68 | Cc1c(NC(=O)/C(C#N)=C/c2ccc(-c3ccc(Cl)cc3)o2)c(=O)n(-c2ccccc2)n1C | inconclusive: 35.5 µM [inhibitor, single point] | 
69 | CC1(C(=O)N/N=C/c2ccccc2)CC1(Br)Br (centres undefined) | inconclusive: 22.4 µM [inhibitor, partial curve] | 

From PubChem BioAssay AID485281 (National Center for Advancing Translational Sciences (NCATS), 2010)
